Measured values from PMC6299665 (2018).

Tests used:
[1] = biological target: T1, human OX40, histidine-tagged recombinant (human, UniProt P43489 29-214); assay: SPR
T1 chain: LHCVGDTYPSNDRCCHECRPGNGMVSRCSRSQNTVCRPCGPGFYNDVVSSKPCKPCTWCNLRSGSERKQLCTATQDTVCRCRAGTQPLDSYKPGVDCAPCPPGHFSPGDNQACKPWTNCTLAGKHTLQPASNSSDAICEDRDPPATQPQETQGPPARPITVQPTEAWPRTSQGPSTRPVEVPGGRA

[2] = biological target: T2, human PD-L2, histidine-tagged recombinant (human, UniProt Q9BQ51 20-220); assay: SPR
T2 chain: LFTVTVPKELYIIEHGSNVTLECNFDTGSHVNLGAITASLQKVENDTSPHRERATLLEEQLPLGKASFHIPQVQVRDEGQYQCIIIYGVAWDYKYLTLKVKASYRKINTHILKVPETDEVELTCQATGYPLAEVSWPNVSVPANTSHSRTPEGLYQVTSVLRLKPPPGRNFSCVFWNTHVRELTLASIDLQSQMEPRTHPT

koff [1]: 1.9e-05 s⁻¹ | koff [2]: 6.7e-05 s⁻¹
B1: human PD1-Fc-OX40L (Fc fusion)
chain: [omitted - about 400 residues with a human IgG4 Fc]QVSHRYPRIQSIKVQFTEYKKEKGFILTSQKEDEIMKVQNNSVIINCDGFYLISLKGYFSQEVNISLHYQKDEEPLFQLKKVRSVNSLMVASLTYKDKVYLNVTTDNTSLDDFHVNGGELILIHQNPGEFCVL
